# Experimental data taken from the supplement of paper PMC4166925.
# ± gives the standard deviation of the averaged measurements. The full ranking holds about 33,000 sequences; the median of “E-score (dimensionless, -0.5 to 0.5)” is about -0.046, and the highest 2% start at about 0.36. The list shows a part of the results.
# Tested on: T1, SpTbr T-box DNA-binding domain (GST fusion)
# T1 sequence: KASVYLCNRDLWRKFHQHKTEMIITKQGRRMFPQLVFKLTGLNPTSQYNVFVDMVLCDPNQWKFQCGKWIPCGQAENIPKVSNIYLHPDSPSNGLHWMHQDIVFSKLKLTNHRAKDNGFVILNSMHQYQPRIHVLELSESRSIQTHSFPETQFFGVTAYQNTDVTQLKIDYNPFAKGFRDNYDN
# Test: PBM E-score of 8-mer (E-score (dimensionless, -0.5 to 0.5)); Tbr is Tbrain of the sea star Patiria miniata (Pm) or the sea urchin Strongylocentrotus purpuratus (Sp); higher = stronger binding preference; most listed sequences are background and not binding sites
# Details: the construct has about 5 more residues each side
# Description: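 Universal protein-binding microarray (Agilent AMADID 016060, 60-bp probes with a 35-bp variable region) incubated with 200 nM GST-fused Strongylocentrotus purpuratus Tbr T-box DNA-binding domain (residues 362-554) in PBS pH 7.5. Scored for every ungapped 8-mer (given with its reverse complement) as E-score (range -0.5 to 0.5; >0.45 counts as bound) and Z-score of median probe intensity. Two replicate arrays (datasets 1 and 2).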
# 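Further: protein at 200 nM in PBS on universal double-stranded arrays.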
row,Sequence,PBM E-score of 8-mer
1,AGGCCTCC,-0.145 ± 0.03
2,GCTAACCA,0.157 ± 0.0061
3,AGCCCTAG,-0.0534 ± 0.036
4,ATGCTAAT,0.00238 ± 0.0093
5,CATTAAAA,-0.217 ± 0.079
6,CGTGATGA,0.243 ± 0.068
7,GAGCTTAC,-0.0865 ± 0.055
8,GGAGGCCC,-0.4444 ± 0.004
9,CGCCGGGC,0.0236 ± 0.022
10,AAGTCGCT,0.212 ± 0.069
11,CTTCGAGC,0.0221 ± 0.078
12,AAAATCTC,-0.00039 ± 0.027
13,CTGACCAC,0.0737 ± 0.024
14,GCCAAGAC,-0.0449 ± 0.068
15,ATTCGCCA,0.235 ± 0.015
16,CCAAACTC,-0.216 ± 0.035
17,AACGCTCG,0.133 ± 0.095
18,GATGGGGC,-0.232 ± 0.027
19,CGACCTAC,-0.028 ± 0.012
20,ACCCGCGC,0.163 ± 0.0027
21,GGCCTACA,-0.158 ± 0.0037
22,CCGTACAG,-0.251 ± 0.01
23,AAAATCGC,0.143 ± 0.047
24,CGGGGAAC,-0.248 ± 0.0031
25,CTGTTCGC,0.322 ± 0.013

row,Sequence,PBM E-score of 8-mer
1,GTTACTAA,-0.0296 ± 0.097
2,GCCCACCC,-0.095 ± 0.098
3,CTGGGGTA,-0.168 ± 0.017
4,ATACCGTA,-0.0826 ± 0.059
5,GTCGGGTA,0.057 ± 0.035
6,GGGTCTAA,0.088 ± 0.045
7,CTTAGATA,-0.166 ± 0.068
8,ATGGCCAT,-0.2 ± 0.017
9,AATCGCCT,-0.0697 ± 0.07
10,GTTGTGAA,0.4 ± 0.015
11,ACGGGAAT,-0.0347 ± 0.057
12,CTATTGTC,0.027 ± 0.094
13,ACCAAGTA,0.0493 ± 0.11
14,TCCTCTCA,0.187 ± 0.1
15,GATGGAAA,0.0582 ± 0.0093
16,ACGGCAGG,0.221 ± 0.0079
17,ATTTACTA,-0.204 ± 0.046
18,GTATATGA,-0.0217 ± 0.0052
19,CCGGATAA,-0.143 ± 0.034
20,GGGTTCAA,-0.244 ± 0.019
21,ATTTTTCG,0.135 ± 0.066
22,CTCTCCCA,0.0994 ± 0.023
23,GTTGGAGA,-0.168 ± 0.033
24,GACGTTAA,-0.145 ± 0.1
25,TCAACTAA,0.0104 ± 0.06

row,Sequence,PBM E-score of 8-mer
1,ACGATAGG,-0.21 ± 0.072
2,AGAGTAAC,-0.0382 ± 0.02
3,GTCTGGCA,0.00596 ± 0.021
4,AACTTAGG,-0.241 ± 0.01
5,TGTTCAAA,0.00431 ± 0.014
6,GGGTGCGA,0.4746 ± 0.00052
7,CCATACAA,-0.143 ± 0.053
8,AAAAATCA,0.0134 ± 0.02
9,GTTCAGGA,0.00196 ± 0.097
10,CCGAAAAA,-0.275 ± 0.042
11,GAGACGAC,-0.0936 ± 0.022
12,CAAATTAC,0.079 ± 0.017
13,CTTAGGAA,-0.21 ± 0.035
14,ACCCGAAG,0.0813 ± 0.022
15,CACTTTCC,0.273 ± 0.034
16,GCGTTAGC,0.344 ± 0.021
17,TGTGTAAA,0.267 ± 0.031
18,ACCGTAGT,-0.0551 ± 0.041
19,AACAATCA,0.0053 ± 0.019
20,ATGAATTC,0.0409 ± 0.0061
21,AAACCCAA,-0.175 ± 0.011
22,CAATCACA,0.29 ± 0.0076
23,ATCATAGG,-0.141 ± 0.02
24,GGCGGACA,-0.0821 ± 0.027
25,ACTCCCCG,-0.0676 ± 0.042

row,Sequence,PBM E-score of 8-mer
1,AATTGCCG,0.08271 ± 0.00019
2,GCCAGTTA,0.0672 ± 0.012
3,AGTCGTAT,-0.1389 ± 0.00078
4,CGACCCTA,-0.159 ± 0.049
5,CTTAAATA,-0.125 ± 0.048
6,GGTGACCA,0.075 ± 0.05
7,GGCTTGGA,-0.317 ± 0.0094
8,CCGATGCG,-0.169 ± 0.017
9,CGGTACGA,-0.104 ± 0.04
10,ACCCATTA,0.0333 ± 0.034
11,GCGTATCC,-0.03 ± 0.059
12,CAAGTGTG,0.453 ± 0.0056
13,AAGGGGCT,-0.267 ± 0.059
14,GTGCTTGA,0.0005 ± 0.0029
15,CGAACACG,0.166 ± 0.011
16,CCCACGCG,0.222 ± 0.015
17,CGAAGTCG,0.112 ± 0.032
18,ACCATAGG,0.138 ± 0.017
19,GAGTTAGA,-0.155 ± 0.12
20,AATAAAAA,-0.103 ± 0.01
21,GATGGTAA,-0.0331 ± 0.078
22,GACAGAGA,-0.0265 ± 0.032
23,CGACGTCG,0.0879 ± 0.057
24,GATTATCA,0.0728 ± 0.12
25,AGTTGGCG,0.197 ± 0.04

row,Sequence,PBM E-score of 8-mer
1,AGGTAGCA,0.0725 ± 0.016
2,GGTAATAA,-0.117 ± 0.024
3,AGAGTCAA,-0.178 ± 0.031
4,AGCAATAT,-0.0267 ± 0.017
5,CTAATTAC,-0.00937 ± 0.0047
6,CGAAGCCG,0.244 ± 0.045
7,ACATGCTA,0.122 ± 0.055
8,CATGGGAA,-0.135 ± 0.021
9,ATGTACGG,-0.177 ± 0.01
10,CTTGTGGA,0.1724 ± 0.00061
11,CGCGTTTA,0.0979 ± 0.059
12,AAGGAGAC,-0.174 ± 0.043
13,AGAAGGGA,-0.25 ± 0.041
14,GGAGGTTA,0.0402 ± 0.089
15,ACGGCCGC,0.0717 ± 0.012
16,GGAAGGGA,-0.2472 ± 0.00063
17,AAACAACT,0.0242 ± 0.015
18,CGGTCAGC,-0.186 ± 0.18
19,AAATTAGC,0.186 ± 0.032
20,CACCTCCC,0.389 ± 0.017
21,GTATATCA,-0.0371 ± 0.025
22,GCCGAGCA,0.0371 ± 0.066
23,AAAGAGGA,-0.0737 ± 0.031
24,CATTTGCC,-0.158 ± 0.049
25,ATACTGTA,0.0532 ± 0.019

row,Sequence,PBM E-score of 8-mer
1,GACGTCTA,-0.05511 ± 0.00047
2,ACAACCGG,-0.215 ± 0.038
3,TTCTGAAA,-0.268 ± 0.0015
4,CGAGTACC,-0.0702 ± 0.07
5,AGGCGCAC,-0.00462 ± 0.11
6,CACTTCAA,0.213 ± 0.013
7,AATGATAC,0.0216 ± 0.048
8,CACTGATC,-0.0424 ± 0.017
9,CGCCCTTA,0.0347 ± 0.031
10,CCTGAAAC,-0.146 ± 0.076
11,CTTTACCC,-0.251 ± 0.01
12,CATATTCA,0.118 ± 0.022
13,AGGGTGAA,0.132 ± 0.073
14,CGGCATGA,-0.118 ± 0.025
15,GGAGACCA,-0.0961 ± 0.027
16,CTGCGTGC,-0.0397 ± 0.01
17,CCCTGCTC,-0.191 ± 0.063
18,CTCTAGGC,-0.0953 ± 0.044
19,CCGGACGG,-0.259 ± 0.036
20,ATACGTGG,-0.158 ± 0.036
21,GGTTTGAC,0.0212 ± 0.023
22,CGTAGAAG,-0.295 ± 0.028
23,TAAATCCA,-0.136 ± 0.008
24,CTTCATTC,-0.213 ± 0.0065
25,ATATCTGG,-0.235 ± 0.066

row,Sequence,PBM E-score of 8-mer
1,ACTACGAC,-0.161 ± 0.072
2,CTCCGCAG,-0.0482 ± 0.0072
3,GCATATAA,-0.204 ± 0.069
4,CTCGCTCA,0.0444 ± 0.056
5,CTGCCTTA,-0.114 ± 0.0045
6,ATCGGATA,-0.124 ± 0.068
7,CACATTGC,0.25 ± 0.017
8,CACCCTAC,0.136 ± 0.011
9,CTGGCGCC,0.234 ± 0.036
10,CGTGATCC,0.11 ± 0.02
11,CTGAGCTC,-0.192 ± 0.018
12,CGGGGAGA,-0.0892 ± 0.052
13,CCCTAAAG,-0.256 ± 0.0096
14,TACCAGGA,-0.24 ± 0.028
15,AACCTCAG,-0.244 ± 0.045
16,AAGCAAGG,-0.0863 ± 0.017
17,ATGTAGCA,-0.175 ± 0.017
18,TAAAGTCA,-0.2 ± 0.036
19,CAAAAGAC,-0.175 ± 0.089
20,ACTATATG,-0.168 ± 0.056
21,TTAGTGAA,0.0446 ± 0.044
22,AGAATCGG,-0.0586 ± 0.055
